# Measurements reported in publication PMC12136788.
# This is one part of the list.
# T1: UNK ZnF1-3 (human, UniProt Q9C0B0 31-174)
# T1 sequence: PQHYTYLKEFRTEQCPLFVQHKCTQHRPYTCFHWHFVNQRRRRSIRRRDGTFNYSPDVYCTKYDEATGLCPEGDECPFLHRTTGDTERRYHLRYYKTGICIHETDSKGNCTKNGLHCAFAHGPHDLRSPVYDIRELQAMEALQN
# B1: chr17:87832841:87832842:-_ENSMUSG00000036438_ENSMUST00000040440|perfect_dup|FALSE|FALSE (ssRNA)
# RNA: GGGAGUUCUACAGUCCGACGAUCACAACUUGGAAUGGAUUUGAGGCAAGUUGUGCCAUGAGCAGGUUUUCUUUAAGUGGCUAAACAAAGUUUAAAAAGCAAGUAACAAUAAAAGAAAAUGUUCCUGGUACAAUACCAGCAGUACAACAGAGGAUUGAGCAUCA
# B2: chr19:16212804:16212805:+_ENSG00000167460_ENST00000300933|hu_mus|hu_hu_hu_mus_False|1_98 (ssRNA)
# RNA: GGGAGUUCUACAGUCCGACGAUCAACAAUUCUGGAGAAGAACAUCAAUGUAACAUGGAACAGCAUUAAAGCUCAGUCAGAAGGCACAUGGGCAACAAUGAUCACCCCAGCAUUCUCGCUUGGAAUGCUUAAAGACAGAUGUUUCAACAGAGGAUUGAGCAUCA
# B3: chr7:117129726:117129727:-_ENSMUSG00000047554_ENSMUST00000119929|mus_hu|FALSE|FALSE (ssRNA)
# RNA: GGGAGUUCUACAGUCCGACGAUCCUUACUACGCCGAAGCGCCACGGCUAGAGCCACUUCCGGCGCGACCUCCUCACCCGAGACGACCUCAGCCCAGCGAGUACUGCAACCUCCUGCAAACACCCGCAGCGCCCACCACAGGCUCAACAGAGGAUUGAGCAUCA
# B4: chr21:27062186:27062187:+_ENSG00000154721_ENST00000480456|hu_hu|FALSE|FALSE (ssRNA)
# RNA: GGGAGUUCUACAGUCCGACGAUCACCCAGUUUCUUCCACUCUAAUCUGGAGGAAACAGUCUUCUUUGGGGUUUUGCAGGCUAAAAUAGCCUCUUGGUACUCUACUGCUGUGACUACUUGUUGGUCUUUUGGGGCAGAAAACCCCAACAGAGGAUUGAGCAUCA
# B5: chr12:112777701:112777702:+_ENSMUSG00000021282_ENSMUST00000166123|mus_hu|motif|central (ssRNA)
# RNA: GGGAGUUCUACAGUCCGACGAUCCGGUCUCUGACAUGAAAAAAUUUUCGCCACUGAGGCUGUAAGCUUCUUGCUUGUAUGCGGUGUUUCCCCAAUACAGGUACCAAUGGCUGCGCAACAGCUCUGAAAGAAAAAGGGAAAGAACAACAGAGGAUUGAGCAUCA
# B6: chr15:58001004:58001005:+_ENSG00000255529_ENST00000299638|hu_hu|motif|central (ssRNA)
# RNA: GGGAGUUCUACAGUCCGACGAUCAUCUGUACCCACAUCAACUUCUGCAAUUGCUUUUUGCCUUAGCUUACAGUCGGAACGGACAGGGUUAAACAGUUCACUUUUUCUUCUAACUUCUUCACAUUCUGCAAUGGCAGCUUUCAGCAACAGAGGAUUGAGCAUCA
# Target: T1, UNK ZnF1-3
# Test: nsRBNS (natural sequence RNA bind-n-seq); RBNS binding buffer (assumed for nsRBNS): 25 mM Tris pH 7.5, 150 mM KCl, 3 mM MgCl2, 0.01% Triton X-100, 500 ug/ml BSA, 20 U/ml SUPERase-In, 4 C; UNK is unkempt and MSI1 is Musashi-1; names of the RNAs are library labels; protein concentration not given here; high values mean tight binding
row,Binder,binding signal [enrichment R]
1,B1,0.947
2,B2,1.45
3,B3,0.927
4,B4,0.466
5,B5,1.54
6,B6,0.639
